Assay results as given in article PMC4336329 (PLoS ONE, 2015).
In all, about 310,000 compounds went through this assay and about 2,200 (0.71%) showed an effect of 50% or more. The effect is printed as a negative number. Some of the results follow.

Molecular target: human ether-à-go-go-related gene (hERG) potassium channel (human, UniProt Q12809)
Experiment: primary screen, population patch clamp on CHO cells stably expressing hERG

Sequence of human ether-à-go-go-related gene (hERG) potassium channel (Q12809 whole entry, looked up): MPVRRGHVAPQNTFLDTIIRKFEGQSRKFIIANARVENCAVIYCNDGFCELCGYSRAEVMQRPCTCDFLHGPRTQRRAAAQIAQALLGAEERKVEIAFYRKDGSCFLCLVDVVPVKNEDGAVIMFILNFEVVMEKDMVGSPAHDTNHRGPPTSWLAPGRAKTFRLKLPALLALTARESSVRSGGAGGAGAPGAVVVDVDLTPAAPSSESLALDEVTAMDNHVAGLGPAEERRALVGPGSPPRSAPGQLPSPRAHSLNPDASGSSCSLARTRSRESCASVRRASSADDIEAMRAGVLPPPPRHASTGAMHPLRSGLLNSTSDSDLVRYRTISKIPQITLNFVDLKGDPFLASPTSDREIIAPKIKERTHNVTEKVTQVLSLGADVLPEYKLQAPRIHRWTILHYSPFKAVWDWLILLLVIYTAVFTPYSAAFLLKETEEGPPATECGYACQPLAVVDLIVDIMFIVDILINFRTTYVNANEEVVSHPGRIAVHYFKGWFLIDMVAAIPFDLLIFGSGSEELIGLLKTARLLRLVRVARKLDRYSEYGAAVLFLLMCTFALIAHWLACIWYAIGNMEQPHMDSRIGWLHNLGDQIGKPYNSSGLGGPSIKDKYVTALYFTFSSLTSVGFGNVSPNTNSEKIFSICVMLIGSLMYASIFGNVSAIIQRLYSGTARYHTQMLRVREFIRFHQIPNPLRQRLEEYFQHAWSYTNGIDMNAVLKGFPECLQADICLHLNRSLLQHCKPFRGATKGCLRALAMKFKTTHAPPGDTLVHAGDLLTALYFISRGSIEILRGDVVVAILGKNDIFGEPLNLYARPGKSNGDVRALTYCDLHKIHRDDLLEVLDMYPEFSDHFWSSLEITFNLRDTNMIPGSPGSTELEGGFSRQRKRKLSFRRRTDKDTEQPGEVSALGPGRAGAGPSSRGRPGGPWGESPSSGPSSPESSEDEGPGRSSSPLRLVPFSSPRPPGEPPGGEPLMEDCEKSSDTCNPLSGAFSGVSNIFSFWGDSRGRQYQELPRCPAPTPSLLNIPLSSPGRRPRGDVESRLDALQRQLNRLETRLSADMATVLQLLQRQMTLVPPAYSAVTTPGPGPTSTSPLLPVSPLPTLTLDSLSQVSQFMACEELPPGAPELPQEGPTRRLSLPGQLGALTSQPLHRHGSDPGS

| Compound | hERG current change (%, negative = inhibition) at 1uM [%] |
| --- | --- |
| CC(=O)c1ccc(N2CCN(C3CCC(C(C)(C)C)CC3)CC2)cc1 (stereo not drawn) | 10.8 |
| CCSCc1nnc(SCC(=O)Nc2ccc(F)cc2)n1CC | 7.2 |
| CCOC(=O)c1cc(-c2cccs2)[nH]n1 | 9.5 |
| O=[N+]([O-])c1ccc(CN2CCN(c3ccccc3)CC2)o1 | 9.21 |
| NC(=O)c1cc(-c2csc(NCCc3ccccc3)n2)ccc1O | 14.1 |
| CCC1=C(OC(=O)N(CC)CC)N2C(=O)OC(=NCCc3c[nH]c4ccccc34)[C@]2(Cc2ccccc2)[C@H]2C1=CC[C@H]1C(=O)N(C)C(=O)[C@H]12 | 14.8 |
| Cc1ccc(S(=O)(=O)N2CCOC2CNC(=O)C(=O)NCCN(C)C)cc1 (stereo not drawn) | 7.39 |
| Cc1c(C(Nc2ccccn2)c2ccc(Cl)cc2)c(=O)n(-c2ccccc2)n1C (stereo not drawn) | 9.5 |
| O=C1CC(SC2=NCCS2)C(=O)N1c1ccc(Br)cc1 (stereo not drawn) | 10.5 |
| CCOC(=O)c1cc(-c2ccccc2)n(Cc2cc(CC)no2)n1 | 13.7 |
| Clc1ccc(/C=N/Nc2nn[nH]n2)cc1 | 11.1 |
| COc1ccccc1NC(=O)COC(=O)CC(C)(C)CC1=NS(=O)(=O)c2ccccc2N1 | -44.2 |
| Clc1ccc(Nc2ccc(NCc3ccccc3)nn2)cc1 | 1.26 |
| CC(=O)c1cccc2c(O)c(C3=Nc4ccccc4C3=O)[nH]c12 | 3.06 |
| COc1ccc(Cl)cc1NC(=O)CN(C)CC(=O)NCc1cccs1 | 5.81 |
| COCc1cc(C)nc(SCc2ccccc2)c1C#N | 15.3 |
| CC(=O)c1cccc(N(C(=O)CNC(=O)c2cccs2)C(C(=O)NCC2CCCO2)c2ccccc2)c1 (stereo not drawn) | 13.3 |
| Cc1c(NC(=O)NCCN2C(=O)C3C4C=CC(C4)C3C2=O)c(=O)n(-c2ccccc2)n1C (stereo not drawn) | 14.1 |
| O=C(O)c1cccc(NC(=O)C2C3C=CC(C3)C2C(=O)O)c1 (stereo not drawn) | 23.8 |
| Nc1cc(=O)[nH]c(SCCSc2cc(Cl)ccc2Cl)n1 | 7.22 |
| CC(C)c1nc(SCC(=O)Nc2cccc(S(N)(=O)=O)c2)n[nH]1 | 12.4 |
| CC1CCCCC1NC(=O)CN1CCC(NC(=O)c2cccc(F)c2)CC1 (stereo not drawn) | 8.19 |
| CC(C(=O)NCc1ccc(Cl)cc1)n1cccc1C(=O)c1ccccc1 (stereo not drawn) | 9.15 |
| C[C@@H]1NC(=O)c2cc([N+](=O)[O-])cc(F)c2NCCC[C@@H](C(N)=O)NC(=O)[C@H](CC(N)=O)NC1=O | 25.7 |
